# The list shows a part of the results. At the low end of the ranking, values are background and their order means little.
# Target: T1, ELK1 (UniProt P19419)
# T1 sequence: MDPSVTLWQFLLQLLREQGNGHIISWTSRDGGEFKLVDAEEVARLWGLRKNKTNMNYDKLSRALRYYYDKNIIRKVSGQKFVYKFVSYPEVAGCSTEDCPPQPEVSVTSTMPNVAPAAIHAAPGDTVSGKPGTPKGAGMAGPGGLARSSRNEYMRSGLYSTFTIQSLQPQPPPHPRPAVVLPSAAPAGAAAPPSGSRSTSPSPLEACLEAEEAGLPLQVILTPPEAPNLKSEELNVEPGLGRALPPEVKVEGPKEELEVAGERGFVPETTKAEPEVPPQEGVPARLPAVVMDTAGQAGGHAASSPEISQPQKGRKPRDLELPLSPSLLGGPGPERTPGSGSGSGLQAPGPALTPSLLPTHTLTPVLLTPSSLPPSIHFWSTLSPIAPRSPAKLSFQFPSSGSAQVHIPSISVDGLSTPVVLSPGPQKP
# Assay: custom PBM
# Conditions: custom protein-binding microarray; buffer, salt, pH and temperature not stated; high values mean tight binding; double strand, one strand shown
row,Sequence,binding signal (log fluorescence intensity)
1,CGGAAGTGTCGTAAACGTCGGATATCCTGTTCTTCTGTCTTGATTCGCTTGACGCTGCTG,10.4
2,CACAATTTTTACAGTAATGGAGCACGCGTAACTCCTGTCTTGATTCGCTTGACGCTGCTG,8.81
3,TGTCGGGCAAGGGAATGTAGATCACGTGAATGAAAAGTCTTGATTCGCTTGACGCTGCTG,9.09
4,GGAAAAATGCCCAGGGTAACACCGGAAGTGGGCTTAGTCTTGATTCGCTTGACGCTGCTG,11
5,CGGAAGTGTCGTAAACGTCGGATATCCGGTTCGTCTGTCTTGATTCGCTTGACGCTGCTG,12.4
6,CACAGTTTTTACAGTAATGTAGCACGCGTAACTCCTGTCTTGATTCGCTTGACGCTGCTG,8.91
7,GCTGCTGCGGTGCATACCCCACCGAATGTGACCCCGGTCTTGATTCGCTTGACGCTGCTG,8.9
8,GGTTAATTTCTGCCCTTATTCGCACGTGCCATAACAGTCTTGATTCGCTTGACGCTGCTG,8.97
9,TACTGTCTTATATATGCGAATGCACATGAATAGACCGTCTTGATTCGCTTGACGCTGCTG,8.83
10,GCTTAATTTCTGCCCTTATTCGCACGTGCCATAACAGTCTTGATTCGCTTGACGCTGCTG,9
11,TCCGGCTACCAGCTCCACCCACCTCAGGCCTTGTAGGTCTTGATTCGCTTGACGCTGCTG,8.76
12,TAAAGGGAAGACGGTTGTGGTAGTTCCGGGTATCAAGTCTTGATTCGCTTGACGCTGCTG,11.1
13,GCTGCTGCGGTGCATACCCCACCGGATGTGACCGCGGTCTTGATTCGCTTGACGCTGCTG,10.3
14,GATTAATTTCTGCCCTTATTCGCACGTGACATAACAGTCTTGATTCGCTTGACGCTGCTG,8.89
15,TCCGGCTACCAGCTCCACCCACTTCAGGCCTTGTAGGTCTTGATTCGCTTGACGCTGCTG,8.96
16,GTGTATAGGGTCCCATCCAACACACGTGTTAAAATGGTCTTGATTCGCTTGACGCTGCTG,8.77
17,TACTGACTTATATATGCGAATGCACATGATTAGACCGTCTTGATTCGCTTGACGCTGCTG,9
18,GATTAATTTCTGCCCTTATTCGCACGTGCCCTAACAGTCTTGATTCGCTTGACGCTGCTG,8.97
19,GCTGCTGCGGTGCATACCCCACGGGATGTGACCCCGGTCTTGATTCGCTTGACGCTGCTG,8.82
20,TAAAGGGAAGACGGTTGTGGTAGTTCCGTGTATTAAGTCTTGATTCGCTTGACGCTGCTG,9.6
21,GCTACTGCGGTGCATACCCCACCGGATGTGACCCCGGTCTTGATTCGCTTGACGCTGCTG,10.2

row,Sequence,binding signal (log fluorescence intensity)
1,GCTGATGCGGTGCATACCCCACCGGATGTGACCCCGGTCTTGATTCGCTTGACGCTGCTG,10.2
2,CGGAATTGTCGTAAACGTCGGATATCCGGTTCTTCTGTCTTGATTCGCTTGACGCTGCTG,12.8
3,TGTCGGGTAAGGGAAAGTAGATCACGTGAATGAAAAGTCTTGATTCGCTTGACGCTGCTG,9.03
4,CGGAAGTGTCGTAAACGTCGTATATCCGGTTCTTCTGTCTTGATTCGCTTGACGCTGCTG,11.3
5,GATTAATTTCTGGCCTTATTCGCACGTGCCATAACAGTCTTGATTCGCTTGACGCTGCTG,8.88
6,GCTGCTGCGGTGCATACCCCACCGGATGTGACCCAGGTCTTGATTCGCTTGACGCTGCTG,10.2
7,GACTGACTTATATATGCGAATGCACATGAATAGACCGTCTTGATTCGCTTGACGCTGCTG,8.81
8,TACTGACTTATATATGCGAATGCACATTAATAGACCGTCTTGATTCGCTTGACGCTGCTG,8.91
9,GTGTATAGGATCCCATCCAACACATGTGTTAAAATGGTCTTGATTCGCTTGACGCTGCTG,8.79
10,GTGTATAGGATCCCATCCAACACACGTGTTCAAATGGTCTTGATTCGCTTGACGCTGCTG,8.97
11,TACTGACTTATATATGCGAATGCACATGAATAGACAGTCTTGATTCGCTTGACGCTGCTG,8.79
12,TACTGACTTATATATGCGAATGCACATGAATAGAACGTCTTGATTCGCTTGACGCTGCTG,8.92
13,CATTAATTTCTGCCCTTATTCGCACGTGCCATAACAGTCTTGATTCGCTTGACGCTGCTG,8.95
14,TACTGACTTATATATGCGAATGCACATGCATAGACCGTCTTGATTCGCTTGACGCTGCTG,8.85
15,TGTCGGGTAAGGGAATGTAGATCAAGTGAATGAAAAGTCTTGATTCGCTTGACGCTGCTG,8.63
16,TACTGACTTATATAAGCGAATGCACATGAATAGACCGTCTTGATTCGCTTGACGCTGCTG,8.83
17,GTGTATAGGATCCCATCCAACATACGTGTTAAAATGGTCTTGATTCGCTTGACGCTGCTG,8.92
18,GGAAAAAGGCCCAGGGTAACACCGGAAGTGGGCCTAGTCTTGATTCGCTTGACGCTGCTG,10.9
19,CGGAAGTGTCGTAAACGTCGGATATCAGGTTCTTCTGTCTTGATTCGCTTGACGCTGCTG,9.1
20,TACAGACTTATATATGCGAATGCACATGAATAGACCGTCTTGATTCGCTTGACGCTGCTG,9.04
21,TACTGACTTATATATGCGAATGCACATGTATAGACCGTCTTGATTCGCTTGACGCTGCTG,8.72

row,Sequence,binding signal (log fluorescence intensity)
1,GATTAATTTCTGCCGTTATTCGCACGTGCCATAACAGTCTTGATTCGCTTGACGCTGCTG,8.89
2,GCTGCTGCTGTGCATACCCCACCGGATGTGACCCCGGTCTTGATTCGCTTGACGCTGCTG,10.2
3,TCCGGGTACCAGCTCCACCCACTTCAGGCCTTGTAGGTCTTGATTCGCTTGACGCTGCTG,8.92
4,TAAAGGGAAGACGGTTGTGGTAGTTGCGGGTATTAAGTCTTGATTCGCTTGACGCTGCTG,8.81
5,TTCTGACTTATATATGCGAATGCACATGAATAGACCGTCTTGATTCGCTTGACGCTGCTG,8.82
6,TAAAGGGAAGACGGTTGTGGTAGTTCCAGGTATTAAGTCTTGATTCGCTTGACGCTGCTG,9.02
7,GCTGCTGCGGTGCATACCCCACCGGATATGACCCCGGTCTTGATTCGCTTGACGCTGCTG,9.88
8,TGTCGGGTAGGGGAATGTAGATCACGTGAATGAAAAGTCTTGATTCGCTTGACGCTGCTG,8.76
9,TAAAGGGAAGACGGTTGTGGAAGTTCCGGGTATTAAGTCTTGATTCGCTTGACGCTGCTG,11.4
10,GCTGCTGGGGTGCATACCCCACCGGATGTGACCCCGGTCTTGATTCGCTTGACGCTGCTG,9.94
11,TACTCACTTATATATGCGAATGCACATGAATAGACCGTCTTGATTCGCTTGACGCTGCTG,8.9
12,GATTAATTTCTGCCCTTATTCGAACGTGCCATAACAGTCTTGATTCGCTTGACGCTGCTG,8.94
13,GTGTATAGTATCCCATCCAACACACGTGTTAAAATGGTCTTGATTCGCTTGACGCTGCTG,8.93
14,CAGCATAGGACTTCGTCCCTGAAGCAATTGATAACCGTCTTGATTCGCTTGACGCTGCTG,8.96
15,TCCGGCTACCAGCTCCACCCACTTCAGGCATTGTAGGTCTTGATTCGCTTGACGCTGCTG,8.89
16,CAGCATAGGACTTCTTCCCTGAGGCAATTGATAACCGTCTTGATTCGCTTGACGCTGCTG,8.96
17,TACTGACTTATATATGCGAAAGCACATGAATAGACCGTCTTGATTCGCTTGACGCTGCTG,8.75
18,CAGTATAGGACTTCTTCCCTGAAGCAATTGATAACCGTCTTGATTCGCTTGACGCTGCTG,8.93
19,GATTAATTTCTGCCCTTATTCGCACGTCCCATAACAGTCTTGATTCGCTTGACGCTGCTG,8.83
20,TAAAGGGAAGACGGTTGTGGTAGTTCCGGGTCTTAAGTCTTGATTCGCTTGACGCTGCTG,11.2
21,CAGCATAGGACTTCTTCCCGGAAGCAATTGATAACCGTCTTGATTCGCTTGACGCTGCTG,10.9

row,Sequence,binding signal (log fluorescence intensity)
1,CGGAAGTGTCGTAAACGTCGGATATCTGGTTCTTCTGTCTTGATTCGCTTGACGCTGCTG,9.04
2,CACAATTTTTACAGTAATGTAGCACGCGTATCTCCTGTCTTGATTCGCTTGACGCTGCTG,8.73
3,GCTGCTGCGGTGCATACCCCACCGGATGTGATCCCGGTCTTGATTCGCTTGACGCTGCTG,10.2
4,TACTGACTTATATCTGCGAATGCACATGAATAGACCGTCTTGATTCGCTTGACGCTGCTG,8.83
5,TAAGGGGAAGACGGTTGTGGTAGTTCCGGGTATTAAGTCTTGATTCGCTTGACGCTGCTG,11.3
6,TAAAGGGAAGACGATTGTGGTAGTTCCGGGTATTAAGTCTTGATTCGCTTGACGCTGCTG,11.1
7,GATTAATTTCTGCCCTTATTCGCACGTGCAATAACAGTCTTGATTCGCTTGACGCTGCTG,8.87
8,TAAAGGGAAGACGGTTGTGGTAGTTCCCGGTATTAAGTCTTGATTCGCTTGACGCTGCTG,9.18
9,CGGAAGTGTCGTAAACGTCGGATATCCCGTTCTTCTGTCTTGATTCGCTTGACGCTGCTG,9.22
10,TAAAGGGAAGACGGTTGTGGTAGTTCCGGGTACTAAGTCTTGATTCGCTTGACGCTGCTG,11.3
11,GCTGCTGCGGTGCATACTCCACCGGATGTGACCCCGGTCTTGATTCGCTTGACGCTGCTG,10.1
12,GGAATAAGGCCCAGGGTAACACCGGAAGTGGGCTTAGTCTTGATTCGCTTGACGCTGCTG,10.9
13,GCTGCTACGGTGCATACCCCACCGGATGTGACCCCGGTCTTGATTCGCTTGACGCTGCTG,10.3
14,TCCGGCTACCAGCTCTACCCACTTCAGGCCTTGTAGGTCTTGATTCGCTTGACGCTGCTG,8.98
15,GCTGCTGCGGTGCATACCCGACCGGATGTGACCCCGGTCTTGATTCGCTTGACGCTGCTG,10.5
16,CAGCATAGGACTTTTTCCCTGAAGCAATTGATAACCGTCTTGATTCGCTTGACGCTGCTG,8.75
17,GTGTATAGGATCCCATCCGACACACGTGTTAAAATGGTCTTGATTCGCTTGACGCTGCTG,9.14
18,TAAAGGGAAGACAGTTGTGGTAGTTCCGGGTATTAAGTCTTGATTCGCTTGACGCTGCTG,11.2

# — PMC6602471
